# Results published in publication PMC4336329 (PLoS ONE, 2015).
# Among all 310,000 compounds or so, about 2,200 (0.71%) showed an effect of 50% or more. Effects have a minus sign here. Some of the results follow.
# Target: human ether-à-go-go-related gene (hERG) potassium channel (human, UniProt Q12809)
# Test: primary screen, population patch clamp on CHO cells stably expressing hERG
# human ether-à-go-go-related gene (hERG) potassium channel, sequence (Q12809 whole entry, looked up): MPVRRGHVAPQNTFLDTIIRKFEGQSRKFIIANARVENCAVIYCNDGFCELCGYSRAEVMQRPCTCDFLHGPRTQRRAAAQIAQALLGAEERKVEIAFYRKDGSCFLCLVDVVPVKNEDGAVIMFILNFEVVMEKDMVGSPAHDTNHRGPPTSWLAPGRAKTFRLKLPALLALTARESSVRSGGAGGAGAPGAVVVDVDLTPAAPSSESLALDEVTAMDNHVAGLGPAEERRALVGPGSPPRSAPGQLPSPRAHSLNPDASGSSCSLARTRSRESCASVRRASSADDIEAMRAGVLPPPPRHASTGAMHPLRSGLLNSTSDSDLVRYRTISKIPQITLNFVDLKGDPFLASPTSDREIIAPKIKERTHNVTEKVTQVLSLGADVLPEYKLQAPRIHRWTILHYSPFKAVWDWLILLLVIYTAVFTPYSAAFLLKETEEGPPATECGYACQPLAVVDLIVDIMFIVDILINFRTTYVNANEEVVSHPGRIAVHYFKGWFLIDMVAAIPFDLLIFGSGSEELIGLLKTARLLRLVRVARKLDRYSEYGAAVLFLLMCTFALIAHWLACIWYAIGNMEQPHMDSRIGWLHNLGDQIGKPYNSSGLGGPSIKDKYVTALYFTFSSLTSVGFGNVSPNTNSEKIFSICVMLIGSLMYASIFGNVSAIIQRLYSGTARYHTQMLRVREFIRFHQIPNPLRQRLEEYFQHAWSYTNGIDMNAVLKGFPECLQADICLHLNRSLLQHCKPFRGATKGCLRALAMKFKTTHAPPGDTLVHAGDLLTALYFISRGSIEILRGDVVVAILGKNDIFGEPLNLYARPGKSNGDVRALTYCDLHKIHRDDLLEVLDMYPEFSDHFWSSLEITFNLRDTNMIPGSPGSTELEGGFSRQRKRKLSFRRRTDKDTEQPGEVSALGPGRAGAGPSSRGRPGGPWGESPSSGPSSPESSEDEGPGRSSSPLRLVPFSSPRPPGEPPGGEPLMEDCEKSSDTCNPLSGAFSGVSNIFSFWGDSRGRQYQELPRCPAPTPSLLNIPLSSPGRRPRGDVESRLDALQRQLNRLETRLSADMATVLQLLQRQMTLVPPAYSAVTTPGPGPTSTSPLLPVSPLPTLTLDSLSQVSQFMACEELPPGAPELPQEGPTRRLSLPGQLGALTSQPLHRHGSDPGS
row,Compound,"hERG current change (%, negative = inhibition) at 1uM"
1,O=C(O)c1ccc(Cl)c(S(=O)(=O)N(Cc2ccccc2)c2ccc(F)cc2)c1,10.6%
2,COCCCn1c2nc3ccccc3nc2c2c(=O)n(-c3ccccc3OC)c(C)nc21,11.5%
3,COc1cc(C2c3c(-c4ccccc4O)n[nH]c3C(=O)N2Cc2ccco2)cc(OC)c1OC (centres unmarked),4.86%
4,CCC(Oc1ccccc1)C(=O)Nc1nc2ccccc2[nH]1 (centres unmarked),6.16%
5,Cc1cc(NC(=O)c2cccnc2)ccc1NC(=O)c1cc2ccccc2o1,15%
6,COc1cc(CNn2nnnc2N)cc(Br)c1OCc1c(Cl)cccc1Cl,14.2%
7,Nc1ccn(CC(=O)N2CCN(c3ccccn3)CC2)c(=O)n1,18.5%
8,COC(=O)c1ccc(CN(C(=O)N2CCN(C)CC2)S(=O)(=O)c2ccc(C)cc2)cc1,17.1%
9,O=C(CNC(=O)c1ccc(Br)cc1)N/N=C/c1ccc[nH]1,25.5%
10,COc1ccc2c(c1)cc(C)c1nnc(SCC(=O)N3CCN(C(=O)c4ccco4)CC3)n12,4.47%
11,CCOC(=O)c1ccc(N2C(=O)C3CC=C(C)CC3C2=O)cc1 (centres unmarked),8.57%
12,COc1cc2c3c(c1)c(C1=NC(=S)NC1=O)c(O)n3C(C)(C)C=C2C,11.1%
13,CCOc1cc(C(N)=O)cc(Br)c1OC,8.22%
14,CC(C)(C)N1C(=O)NC(=O)/C(=C\c2ccc3c(c2)CCN3CCCCl)C1=O,10.7%
15,CSc1n[nH]c(=S)n1N,17.3%
16,O=C(/C=C/c1ccco1)NC(=S)Nc1ccccc1N1CCCC1,1.36%
17,O=C(c1ccc(Cl)cc1Cl)N1CCN(c2ccc(N3CCOCC3)nn2)CC1,8.78%
18,O=c1[nH]c(CCl)nc2cc(-c3ccc(F)cc3)sc12,13.9%
19,COc1ccccc1CCc1nnc(CCC(=O)NCCOc2cccnc2)o1,12.7%
20,CC1CC(C)CN(S(=O)(=O)c2cc3c4c(c2)CCN4C(=O)CC3)C1 (centres unmarked),5.83%
21,Cc1ccc2nc(N3C(=O)C(O)=C(C(=O)c4ccco4)C3c3ccc(O)cc3)sc2c1.O=C(O)C(=O)O (centres unmarked),12.5%
22,CCOc1ccc(-c2nc3n(c(=O)c2C#N)CCCS3)cc1,9.07%

row,Compound,"hERG current change (%, negative = inhibition) at 1uM"
1,O=C(c1cc2ccccc2o1)N1CCN(c2cccc(Cl)c2)CC1,-1.24%
2,COc1cc(NC(=O)CN2C(=O)NC(CC(C)C)C2=O)cc(OC)c1OC (centres unmarked),6.25%
3,O=C(C1CC1c1ccccc1)N1CCOCC1 (centres unmarked),35%
4,COCC(=O)Nc1ccc(Br)c(C)c1,10%
5,COc1cc(OC)c(S(=O)(=O)N2CCCCC2)cc1S(=O)(=O)N1CCCCC1,7.92%
6,COc1cc(Cn2c(N)c(C(=O)NCc3ccco3)c3nc4ccccc4nc32)cc(OC)c1OC,-11.3%
7,CN1CCN(c2nc(-c3ccccc3O)nc3ccccc23)CC1,11.3%
8,Cc1ccc(S(=O)(=O)N(C)C)cc1NC(=O)CSc1nnc(C2CC2)n1C1CC1,-4.46%
9,Nc1nnnn1CC(=O)OCc1cccc(Br)c1,-2.49%
10,CCOc1cc(/C=N/N2CCN(Cc3ccccc3)CC2)ccc1O,-1.82%
11,COCCN=C1N[C@@H](c2ccccc2)C(C(=O)OC)=C(C)N1Cc1ccccc1,1.71%
12,Cc1ccc(NC(=O)COC(=O)CCC(=O)c2cccs2)cc1,13.4%
13,O=C(c1ccc(Br)cc1)c1cn[nH]c1-c1ccccc1O,16%
14,CC(=O)Nc1nc2c(C)c(Cl)ccc2s1,14.8%
15,COc1ccc(CNS(=O)(=O)c2ccc(-c3ccc(=O)[nH]n3)o2)cc1,20%
16,COc1c2ccc(C(=O)NCc3cc(C(F)(F)F)cc(C(F)(F)F)c3)cc2nn1C,16.9%
17,C(=N\n1cnnc1)/c1ccccc1OCCOc1ccccc1,5.08%
18,CCOc1ccc(NC(=O)N(c2ccccc2)c2ccccc2)cc1,8.87%
19,CCOc1ccc(N2CC(C(=O)N3CCCCCC3)CC2=O)cc1 (centres unmarked),11.2%
20,Nc1ccc(C(=O)NCCCCCCNC(=O)c2ccc(N)cc2)cc1,8.2%
21,Cc1ccc(N(C(=O)c2ccc(S(=O)(=O)N3CCCC3)cc2)C2C=CS(=O)(=O)C2)cc1 (centres unmarked),-4.81%
22,O=C(c1ccc(Cl)cc1)C1CCCN(C(=O)/C=C/c2ccccn2)C1 (centres unmarked),-8.85%
